Screen size: about 330,000 compounds; about 4,200 (1.3%) were called active. The shares of active, inactive and inconclusive entries below differ from those in the screen. The call rests on the fitted dose curve; in most records, active means well fitted activation curve with a large enough effect; inconclusive means small, poorly fitted or top-dose-only effect; inactive means no such curve, though single readings can be large or run the other way. Where the call is inconclusive, the potency comes from a doubtful curve fit.
assay: qHTS screen for small molecules that induce genotoxicity in human embryonic kidney (HEK293T) cells expressing luciferase-tagged ELG1; conditions: HEK293T ELG1-luciferase reporter, luminescence, 16 h; series mostly up to 46 µM; activity change, positive = activation: at the top concentration; further: nearly all actives have a fitted effect of over 60% in size; on activity change, positive = activation: % of control where 0% means no effect
Summary of the method: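 Genotoxicity was scored as increased ELG1-luciferase reporter signal, measured by ONE-Glo luminescence (30 min, room temperature). Compound or vehicle exposure of the HEK293T reporter cells lasted 16 hr at 37°C.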
Potency means the concentration at half of the fitted maximal effect; tags describe the fitted curve by direction and shape.

SMILES | Potency | activity change, positive = activation
Cc1ccc(-c2nn(-c3ccccc3)cc2CO)cc1 | inconclusive: 13 µM [activator, partial curve, poor fit] | 
CC12COC3(C(N)=O)CC1CCC32C (stereo not drawn) |  | inactive: 1.27%
COc1ccccc1N1CCN(/N=C\c2ccc(C)o2)CC1 | inconclusive: 18.4 µM [activator, single point] | 
C#CCOc1ccc(C2C3=C(COC3=O)Nc3cc4c(cc32)OCO4)cc1OC (stereo not drawn) | inconclusive: 0.259 µM [activator, full curve, poor fit] | 
Cn1c(NCc2ccco2)nc2ccccc21 | inconclusive: 18.4 µM [activator, partial curve] | 
Cc1nc(N2CCCCC2)sc1C(=O)c1cccc([N+](=O)[O-])c1 | inconclusive: 20.6 µM [activator, partial curve, poor fit] | 
C=CC[C@@H](CC(=O)N(CCO)Cc1ccccc1)C(=O)N[C@H](C)COC(=O)[C@@H](CC=C)Cc1ccc(F)cc1 |  | inactive: -7.41%
Cc1nnc(SCc2ccc(F)cc2Cl)s1 | inconclusive: 9.2 µM [activator, partial curve] | 
O=C(NCCC1CCCC1)c1cccs1 | inconclusive: 11.6 µM [activator, partial curve, poor fit] | 
O=C(Nc1ccc(Cc2ccncc2)cc1)c1ccco1 |  | inactive: 16.5%
CC1=Nc2cc(C(=O)NCC3CCCO3)ccc2Sc2ccc(C)cc21 (stereo not drawn) | inconclusive: 14.6 µM [activator, partial curve, poor fit] | 
Cc1ccc2c(c1)COc1c3ccc(C(=O)NC(C)C)cc3nn1-2 | inconclusive: 2.06 µM [activator, partial curve, poor fit] | 
C[C@H](C(=O)CC(=O)OC(C)(C)C)[C@H](O)c1ccccc1 |  | inactive: 0.234%
COc1ccc(/C=C/c2nc3ccccc3c(=O)o2)cc1 | active: 0.82 µM | 
COCCCN=Cc1c(C)[nH]n(-c2ccc(Br)c(C)c2)c1=O | inconclusive: 1.3 µM [activator, full curve] | 
CC(C)CNC(=O)[C@H]1N2C(=O)c3ccccc3C2SC1(C)C (stereo partly drawn) |  | inactive: -0.172%
CSc1ccccc1NC(=O)c1csc(C)c1 |  | inactive: 15.7%
N#CC1(c2ccccc2)CCCN1C(=O)c1ccco1 (stereo not drawn) |  | inactive: 0.852%
Cc1ccc(/C(N)=N/OC(=O)Cc2cccs2)cc1 | inconclusive: 7.31 µM [activator, partial curve] | 
Cc1ncc(CO)c(/C=N/N=C/c2ccccc2O)c1O | inconclusive: 20.6 µM [activator, partial curve] | 
O=C(Cn1nc(-c2ccc(N3CCOCC3)c([N+](=O)[O-])c2)c2ccccc2c1=O)N1CCCCC1 | inconclusive: 25.9 µM [activator, partial curve, poor fit] | 
CN(C)S(=O)(=O)c1ccc(C(=O)NCCOc2ccc(F)cc2)cc1 | active: 13 µM | 
O=C(Nc1nc2ccccc2s1)c1c(F)cccc1Cl | inconclusive: 20.6 µM [activator, partial curve, poor fit] | 
Cc1cc(-c2ccc(Br)cc2)n[nH]1 | inconclusive: 23.1 µM [activator, partial curve, poor fit] | 

SMILES | Potency | activity change, positive = activation
CCCc1nn(C)c(C(=O)Nc2cccc(Cl)c2)c1Cl | inconclusive: 20.6 µM [activator, single point] | 
CCN(CC)CCCNC(=O)c1cn(C)c(=O)c2c1c1ccccc1n2C | inconclusive: 29.1 µM [activator, single point] | 
Cc1cc(C)c2c(N)c(C(=O)Nc3ccc(C)c(C)c3)sc2n1 | active: 1.16 µM | 
COC(=O)c1cccc(COC(=O)c2cccnc2SC)c1 | inconclusive: 20.6 µM [activator, partial curve, poor fit] | 
CN(C)c1cccc(C(=O)Nc2cccc(F)c2)c1 | inconclusive: 9.2 µM [activator, partial curve] | 
Cc1ccc2nc(N(CCN3CCOCC3)C(=O)CCS(=O)(=O)c3ccccc3)sc2c1 | inconclusive: 20.6 µM [activator, single point] | 
N#Cc1ccccc1COC(=O)c1cccnc1N |  | inactive: -6.15%
CC(=O)N1N=C(c2ccc(C)cc2)OC1c1ccc(C)cc1 (stereo not drawn) | active: 18.4 µM | 
O=C(Nc1nnc(-c2ccccc2F)s1)c1ccccc1F | inconclusive: 7.3 µM [activator, partial curve] | 
Clc1ccc(-c2nnc(-c3cccnc3)o2)cc1 | inconclusive: 14.6 µM [activator, single point] | 
COc1cc(NS(=O)(=O)c2ccc(-c3ccc(=O)[nH]n3)o2)cc(OC)c1OC |  | inactive: 1.31%
COCCn1c(=O)[nH]c2cc(C(=O)Nc3nnc(C)s3)ccc21 | inconclusive: 23.1 µM [activator, partial curve, poor fit] | 
CCC(=O)Nc1cccc(-c2nc3ccc(C)cc3o2)c1 | inconclusive: 10.3 µM [activator, partial curve] | 
CN(C)c1ccc(N=Nc2ccc(S(N)(=O)=O)cc2)cc1 | active: 20.6 µM | 
Cc1c(C(=O)NC(C)c2ccncc2)oc2ccccc12 (stereo not drawn) |  | inactive: -0.591%
O=c1[nH]c(/C=C/c2ccccc2F)nc2ccccc12 | active: 11.6 µM | 
O=C(CCS(=O)(=O)c1ccccc1)Nc1nc2cc3c(cc2s1)OCCO3 | inconclusive: 18.3 µM [activator, partial curve, poor fit] | 
Cc1[nH]c2ccccc2c1N=Nc1c(C)n(C)n(-c2ccccc2)c1=O |  | inactive: -9.84%
CN1CC(=O)N(CC(=O)Nc2ccc(N3CCOCC3)cc2)C1=O |  | inactive: -0.876%
Cc1cccc(CSc2cccc3cccnc23)c1 | inconclusive: 20.6 µM [activator, single point] | 
Cc1ccc(C(=O)Nc2cccc(-c3ccc(N4CCOCC4)nn3)c2)cc1[N+](=O)[O-] | inconclusive: 1.83 µM [activator, full curve, poor fit] | 
CC(C)C(=O)Nc1ccc(-c2nnc(-c3ccccc3)o2)cc1 | inconclusive: 2.06 µM [activator, full curve] | 
O=C(c1cc(-c2ccncc2)nc2ccccc12)N1CCN(Cc2ccccc2)CC1 |  | inactive: -7.17%
COc1ccc(OC)c2sc(N3CCCCC3)nc12 | active: 18.4 µM | 

Source: PubChem BioAssay AID504466 (National Center for Advancing Translational Sciences (NCATS), 2011)
